Laboratory results reported in the supplement of paper PMC10369915.
This is one part of the list. Rule as the data show it: active = 3.2 or more and inactive = the rest. Most of these values are background signal.

Assays:
Assay in all cases: enrichment score (SH2-bound / input frequency) (ratio); bacterial display of known human phosphotyrosine sites (pTyr-Var adds point mutants) read by sequencing; higher = stronger binding; tyrosines were phosphorylated by kinases first
Details in all cases: peptide library: pTyr-Var
[1] = molecular target: SHP2 C-SH2 domain E139D
[2] = molecular target: SHP2 C-SH2 domain wild-type
[3] = molecular target: SHP2 N-SH2 domain L43F
[4] = molecular target: SHP2 N-SH2 domain T42A
[5] = molecular target: SHP2 N-SH2 domain T52S
[6] = molecular target: SHP2 N-SH2 domain wild-type

Measured: enrichment score
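Also: displayed peptides selected on beads carrying the immobilized SH2 domain, with library peptides lacking any tyrosine serving as negative controls.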

SVVVPSEPPEV [TP53_Y220_Y220S]
inactive: [1] 0.573 | [2] 0.678 | [3] 0.799 | [4] 0.661 | [5] 0.849 | [6] 0.761

SVMVPYEPPEV [TP53_Y220_V217M]
inactive: [1] 0.914 | [2] 0.71 | [3] 0.843 | [4] 0.677 | [5] 0.722 | [6] 0.808

NTTIHYNYMCN [TP53_Y234_C229N]
inactive: [1] 0.869 | [2] 0.891 | [3] 0.743 | [4] 0.786 | [5] 0.759 | [6] 0.867

RTTIHYNYMCN [TP53_Y234_C229R]
inactive: [1] 0.809 | [2] 0.922 | [3] 0.905 | [4] 0.831 | [5] 0.826 | [6] 1.08

SVVAPYEPPEV [TP53_Y220_V218A]
inactive: [1] 0.707 | [2] 0.631 | [3] 0.6 | [4] 0.512 | [5] 0.579 | [6] 0.904

STTIHYNFMCN [TP53_Y234_C229S_YF]
inactive: [1] 1.28 | [2] 1.2 | [3] 1.11 | [4] 0.98 | [5] 1.09 | [6] 1.28

CTTIHYNYMGN [TP53_Y234_C238G]
inactive: [1] 1.42 | [2] 1.72 | [3] 1.2 | [4] 1.39 | [5] 1.55 | [6] 1.26

SVVVPYEPPEL [TP53_Y220_V225L]
inactive: [1] 0.703 | [2] 0.642 | [3] 0.671 | [4] 0.698 | [5] 0.691 | [6] 0.694

IVVVPYEPPEV [TP53_Y220_S215I]
inactive: [1] 1.21 | [2] 0.971 | [3] 1.06 | [4] 0.956 | [5] 0.882 | [6] 1.03

SVVVPYEPPEI [TP53_Y220_V225I]
inactive: [1] 0.888 | [2] 0.821 | [3] 0.973 | [4] 0.713 | [5] 0.95 | [6] 0.867

SVVVPYEPPEG [TP53_Y220_V225G]
inactive: [1] 0.814 | [2] 0.717 | [3] 0.825 | [4] 0.612 | [5] 0.805 | [6] 0.795

CTTIHYNYMFN [TP53_Y234_C238F]
inactive: [1] 1.63 | [2] 1.81 | [3] 1.46 | [4] 1.87 | [5] 1.48 | [6] 1.59

SVVGPYEPPEV [TP53_Y220_V218G]
inactive: [1] 0.656 | [2] 0.576 | [3] 0.682 | [4] 0.443 | [5] 0.628 | [6] 0.687

SVIVPYEPPEV [TP53_Y220_V217I]
inactive: [1] 0.819 | [2] 0.877 | [3] 0.866 | [4] 0.805 | [5] 0.77 | [6] 0.881

SWVVPYEPPEV [TP53_Y220_V216W]
inactive: [1] 1.23 | [2] 1.06 | [3] 1.14 | [4] 1.08 | [5] 1.07 | [6] 1.1

CTTIHYNFMFN [TP53_Y234_C238F_YF]
inactive: [1] 2.6 | [2] 2.71 | [3] 2.67 | [4] 2.47 | [5] 2.18 | [6] 2.73

CTTIHYNFMHN [TP53_Y234_C238H_YF]
inactive: [1] 2.49 | [2] 2.29 | [3] 1.99 | [4] 1.8 | [5] 2.23 | [6] 2.08

SVEVPYEPPEV [TP53_Y220_V217E]
inactive: [1] 0.636 | [2] 0.617 | [3] 0.568 | [4] 0.605 | [5] 0.631 | [6] 0.61

CTTIHYNFMRN [TP53_Y234_C238R_YF]
inactive: [1] 1.97 | [2] 1.97 | [3] 1.73 | [4] 1.76 | [5] 1.81 | [6] 1.77
